# From paper PMC11053136 (Nature Communications, 2024)
# Assays:
# [1] = hemolysis assay buffer
structure (smiles),measurement,setting,value
COc1ccc(C=C2C(=O)NC(=O)NC2=O)cc1COc1ccc(F)cc1F [PB-1],Stability in DMSO,,entirely stable
same,Solubility in assay buffer (qualitative),[1],without precipitation
